The list shows a part of the results. Single values of this set are uncertain. Values with irradiation are relative to irradiated vehicle.
What was measured:
[1] = tested on: A549-Dual; test: NF-kB reporter (SEAP) activity, viability-corrected, relative to vehicle (fold change vs vehicle); higher = more activation of STING-IRF / NF-kB immune response reporter; conditions: 10 µM
[2] = tested on: A549-Dual; test: ISRE reporter (Lucia luciferase) activity, viability-corrected, relative to vehicle (fold change vs vehicle); higher = more activation of STING-IRF / NF-kB immune response reporter; conditions: 10 µM
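Wherever NF-kB reporter (SEAP) activity, viability-corrected, relative to vehicle is given: viability correction based on the alamar blue assay, with concentrations leaving 10% survival or less dropped.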

SMILES	NF-kB reporter ([1]; irradiation: 8 Gy/4 fr)	NF-kB reporter ([1]; irradiation: none)	ISRE reporter ([2]; irradiation: 8 Gy/4 fr)	ISRE reporter ([2]; irradiation: none)
CCCCc1ncc(/C=C(\Cc2cccs2)C(=O)O)n1Cc1ccc(C(=O)O)cc1.CS(=O)(=O)O [Eprosartan Mesylate]	1.15	1.15	1.02	0.773
CC1=C(C(=O)O)N2C(=O)C(NC(=O)C(N)c3ccccc3)C2SC1 (stereo not drawn) [Cephalexin]	1.08	0.942	0.972	1.02
COCCCC/C(=N\OCCN)c1ccc(C(F)(F)F)cc1.O=C(O)/C=C\C(=O)O [Fluvoxamine maleate]	0.751	0.808	1.02	0.981
CCCCCCCCCCCCCCCC(=O)OC1C(SC)OC(C(NC(=O)C2CC(CCC)CN2C)C(C)Cl)C(O)C1O.Cl (stereo not drawn) [Clindamycin palmitate HCl]	0.847	0.954	1.02	0.826
c1ccc(-c2ccc(C(c3ccccc3)n3ccnc3)cc2)cc1 (stereo not drawn) [Bifonazole]	0.469	0.804	0.33	0.473
NC(Cc1cc(I)c(Oc2ccc(O)c(I)c2)c(I)c1)C(=O)[O-].[Na+] (stereo not drawn) [Liothyronine Sodium]	0.753	1.22	0.517	0.664
CNS(=O)(=O)CCc1ccc2[nH]cc(C3CCN(C)CC3)c2c1.Cl [Naratriptan HCl]	0.742	0.98	0.765	0.872
CC(C)NCC(O)COc1cccc2ccccc12.Cl (stereo not drawn) [Propranolol HCl]	0.849	0.947	0.768	0.627
Cc1ncc([N+](=O)[O-])n1C [Dimetridazole]	0.831	0.931	0.758	0.694
Cl.NC1C(O)OC(CO)C(O)C1O (stereo not drawn) [Glucosamine hydrochloride]	1.04	1.15	0.856	0.717
CN(C)CC/C=C1\c2ccccc2COc2ccccc21.Cl [Doxepin HCl]	0.861	0.956	0.796	0.679
COc1c(N2CCNC(C)C2)c(F)cc2c(=O)c(C(=O)O)cn(C3CC3)c12 (stereo not drawn) [Gatifloxacin]	0.701	0.855	0.63	0.655
CCCC(=O)OCC(OC(=O)CCC)C(OC(=O)CCC)C(Cn1c2nc(=O)[nH]c(=O)c-2nc2cc(C)c(C)cc21)OC(=O)CCC (stereo not drawn) [Riboflavin Tetrabutyrate]	0.87	0.812	0.636	0.595
CC1(C)SC2C(NC(=O)Cc3ccccc3)C(=O)N2C1C(=O)[O-].[K+] (stereo not drawn) [Benzylpenicillin potassium]	0.786	0.852	0.723	0.769
CN1C(CCl)Nc2cc(Cl)c(S(N)(=O)=O)cc2S1(=O)=O (stereo not drawn) [Methyclothiazide]	0.81	1.14	0.765	0.548
CC(=O)[O][K] [Potassium acetate]	0.862	1	0.927	0.958
Nc1cc[nH]c(=O)n1 [Cytosine]	0.845	0.888	0.913	0.734
CCN(CC)CC#CCOC(=O)C(O)(c1ccccc1)C1CCCCC1.Cl (stereo not drawn) [Oxybutynin chloride]	0.811	0.971	0.869	0.783
CC(C)(Oc1ccc(Cl)cc1)C(=O)OCCOC(=O)c1cccnc1 [Etofibrate]	0.928	0.928	0.834	0.697

SMILES	NF-kB reporter ([1]; irradiation: 8 Gy/4 fr)	NF-kB reporter ([1]; irradiation: none)	ISRE reporter ([2]; irradiation: 8 Gy/4 fr)	ISRE reporter ([2]; irradiation: none)
COC(=O)CCC(=O)CN.Cl [Methyl Aminolevulinate Hydrochloride]	0.781	0.838	0.74	0.493
CC/C=C(\C(=O)NC1C(=O)N2C(C(=O)OCOC(=O)C(C)(C)C)=C(COC(N)=O)CSC12)c1csc(N)n1.Cl.O (stereo not drawn) [Cefcapene Pivoxil Hydrochloride]	0.872	1	0.987	0.923
CCCOc1ccc2c(c1)CCC1C2CCC2(C)C(OC)CCC12 (stereo not drawn) [Promestriene]	0.663	0.904	0.566	0.635
Nc1ncnc2c1ncn2C1OC(CO)C(O)C1O.O (stereo not drawn) [Vidarabine monohydrate]	0.784	1.35	0.797	1.4
O=C([O-])P(=O)([O-])[O-].[Na+].[Na+].[Na+] [Foscarnet Sodium]	0.917	1.56	0.986	1.71
CN(C)c1ccc2nc3ccc(=[N+](C)C)cc-3sc2c1.[Cl-] [Methylene Blue]	0.984	2.52	0.311	2.25
COc1cc2c(cc1OC)-c1cc3ccc(OC)c(OC)c3c[n+]1CC2.[Cl-] [Palmatine chloride]	0.848	0.749	0.968	1.4
CC(C)C(N)C(=O)OCC(CO)OCN1C=NC2C(=O)NC(N)=NC21.Cl (stereo not drawn) [Valganciclovir HCl]	0.559	0.886	0.58	0.747
Brc1c(NC2=NCCN2)ccc2nccnc12 [Brimonidine]	0.676	0.901	0.25	0.26
COC(=O)NC(C(=O)N1CCCC1c1ncc(-c2ccc(-c3ccc(-c4cnc(C5CCCN5C(=O)C(NC(=O)OC)C(C)C)[nH]4)cc3)cc2)[nH]1)C(C)C.Cl.Cl (stereo not drawn) [Daclatasvir Digydrochloride]	0.923	0.837	1.26	1.42
Brc1c(NC2=NCCN2)ccc2nccnc12.O=C(O)C(O)C(O)C(=O)O [Brimonidine Tartrate]	1.19	0.779	1.09	0.771
Nc1ccn(C2CSC(CO)O2)c(=O)n1 (stereo not drawn) [Lamivudine]	0.704	1.01	0.796	0.964
O=c1ncn2nc(Sc3ccc(F)cc3F)ccc2c1-c1c(Cl)cccc1Cl	0.58	0.775	0.281	0.398
O=[N+]([O-])c1ccc(O)c2ncccc12 [Nitroxoline]	0.394	0.826	0.114	0.513
CCCOc1ccc(S(=O)(=O)NCCC2CCCN2C)cc1-c1nc(=O)c2c([nH]1)c(CCC)nn2C (stereo not drawn) [Udenafil]	0.701	0.751	0.926	1.13
NC(=O)NCCC[C@H](N)C(=O)O [L-Citrulline]	0.843	0.788	0.751	0.661
COc1ccc(CN2CCN(C(c3ccc(F)cc3)c3ccc(F)cc3)CC2)c(OC)c1OC.Cl.Cl [Lomerizine 2HCl]	0.745	0.686	0.916	0.86
CC(=O)N=c1sc(S(N)(=O)=O)nn1C [Methazolamide]	0.906	1.16	0.964	1.21
COC(c1ccccc1)(c1ccccc1)C(Oc1nc(C)cc(C)n1)C(=O)O (stereo not drawn) [Ambrisentan]	0.755	1.01	0.832	0.895

SMILES	NF-kB reporter ([1]; irradiation: 8 Gy/4 fr)	NF-kB reporter ([1]; irradiation: none)	ISRE reporter ([2]; irradiation: 8 Gy/4 fr)	ISRE reporter ([2]; irradiation: none)
CC1(C)SC2C(NC(=O)Cc3ccccc3)C(=O)N2C1C(=O)O.CC1(C)SC2C(NC(=O)Cc3ccccc3)C(=O)N2C1C(=O)O.c1ccc(CNCCNCc2ccccc2)cc1 (stereo not drawn) [Benzathine penicilline]	0.66	0.779	0.64	0.745
NC(=O)c1nc(F)cnc1O [Favipiravir (T-705)]	0.593	0.816	0.642	0.803
Cl.Clc1ccccc1CN1CCc2sccc2C1 [Ticlopidine HCl]	0.937	1.36	0.743	0.967
CC(O)(P(=O)(O)O)P(=O)(O)O [Etidronate]	0.872	0.931	0.919	0.961
COc1ccccc1OCC(O)CN1CCN(CC(=O)Nc2c(C)cccc2C)CC1 (stereo not drawn) [Ranolazine]	0.644	0.581	0.517	0.474
O=C(O)C1OC(Oc2cc3oc(-c4ccc(O)cc4)cc(=O)c3c(O)c2O)C(O)C(O)C1O (stereo not drawn) [Scutellarin]	1.23	0.822	0.959	0.625
CCN(CC)CC#CCOC(=O)C(O)(c1ccccc1)C1CCCCC1 (stereo not drawn) [Oxybutynin]	0.68	1.3	0.524	0.696
Cl.Clc1ccc(CCCOCCCN2CCCCC2)cc1 [Pitolisant hydrochloride]	0.835	0.806	0.869	0.903
NCCCCCC(=O)O [(6-)ε-Aminocaproic acid]	0.8	1.17	0.698	0.941
Cl.OC(CCN1CCCC1)(c1ccccc1)C1CCCCC1 (stereo not drawn) [Procyclidine HCl]	1.11	0.829	1.2	0.854
O=C(Nc1ccc(Oc2ccc(Cl)cc2)c(Cl)c1)c1cc(I)cc(I)c1O [Rafoxanide]	0.599	0.679	0.416	0.455
Cc1onc(-c2c(Cl)cccc2Cl)c1C(=O)NC1C(=O)N2C1SC(C)(C)C2C(=O)[O][Na].O (stereo not drawn) [Dicloxacillin Sodium]	0.817	1.03	0.822	0.888
Cn1c([N+](=O)[O-])cnc1COC(N)=O [Ronidazole]	0.911	0.998	0.794	0.78
CCC/C=C1\OC(=O)C2=C1CCC=C2 [Ligustilide]	0.931	0.994	0.749	0.647
C=C(CC)C(=O)c1ccc(OCC(=O)O)c(Cl)c1Cl [Ethacrynic Acid]	0.853	0.903	1.06	1.32
Cc1ccc(O)c(C(CCN(C(C)C)C(C)C)c2ccccc2)c1.O=C(O)C(O)C(O)C(=O)O (stereo not drawn) [Tolterodine tartrate]	0.929	0.981	1.11	1.31
COc1ccc(C(=O)c2ccccc2)c(O)c1 [Oxybenzone]	0.759	0.506	0.636	0.459
O=c1c(O)c(-c2ccc(O)cc2)oc2cc(O)cc(O)c12 [Kaempferol]	0.639	0.483	0.455	0.642
COC(=O)C1=C(C)NC(C)=C(C(=O)OCCN(C)Cc2ccccc2)C1c1cccc([N+](=O)[O-])c1 (stereo not drawn) [Nicardipine]	0.756	0.919	0.794	1.18
